Reference: PubChem BioAssay AID493208 (National Center for Advancing Translational Sciences (NCATS), 2011)
Out of some 44,000 compounds screened, about 340 (0.77%) were called active. Inconclusive results (about 5%) are left out. Calls follow the shape of the dose curve; as a rule, active = well fitted inhibition curve with a large enough effect; inconclusive = small, poorly fitted or top-dose-only effect; inactive = flat fitted curve, though single readings scatter. The list shows a part of the results.

Assay: Acumen qHTS Assay for Inhibitors of the mTORC1 Signaling Pathway in MEF (Tsc2-/-, p53-/-) Cells: Sytravon;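 also: plate controls were DMSO for no effect and rapamycin for full effect; nearly all actives have a fitted effect of over 50% in size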
Conditions: phospho-rpS6 immunofluorescence/PI, 24 h; series mostly up to 38.3 µM; activity change, negative = inhibition: at the top concentration
Summary of the method: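 Tsc2-/-, p53-/- mouse embryonic fibroblasts (empty-vector line) exposed to compound 24 hrs at 37 C, fixed, immunostained for phospho-rpS6 and counterstained with propidium iodide. Acumen laser scanning gives % positive cells from Alexa 488/PI ratio, thresholded using 7.5 nM rapamycin; PI count gives viability.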

Activity change, negative = inhibition, inactive:
CCc1ccc(CNC(=O)c2cnc3sc(N(CC)CC)nn3c2=O)cc1 0%
O=C(Cn1ncc2c3ccccc3n(Cc3ccc(Cl)cc3)c2c1=O)NC1CCCCCC1 4.05%
COc1ccc(CCNC(=O)CN2C(=O)COc3ccc(S(=O)(=O)N4CCCCCC4)cc32)cc1OC -1.41%
Cc1ccc(NC(=O)c2ccc(CN3CC(=O)N4CCCCC4C3=O)cc2)cc1C (centres undefined) -7.89%
CCOc1ccc(-n2c(=O)c3sc4ccccc4c3n(Cc3ccc(F)cc3)c2=O)cc1 1.28%
CCc1ccccc1NC(=O)C(=O)NCCc1sc(-c2cccc(C)c2)nc1C 2.85%
CCCCC(CC)Cn1c(Oc2ccccc2)nc2c1c(=O)n(C)c(=O)n2C (centres undefined) -5.21%
CC(C)c1cnc2c(c1SCC(=O)Nc1cccc([N+](=O)[O-])c1)c(=O)n(C)c(=O)n2C -0.407%
COCCCNc1ncnc2c1nnn2C -6.22%
CCn1c(SCC(=O)Nc2ccc(C)c(C)c2)nnc1-c1nonc1NC(C)=O -1.35%
Cc1ccc(Cl)cc1N1CCN(S(=O)(=O)c2ccc3c(c2)CC(=O)N3C)CC1 0.787%
Cc1ccc(N(CC(=O)Nc2ccc(OC(F)(F)F)cc2)S(=O)(=O)c2c(C)noc2C)cc1 -10.9%
Cc1[nH]c2c(C)cccc2c1CCNC(=O)c1cc2ccccc2oc1=O 8.35%
Cc1ccc(O)c(NC(=O)c2nc3nc(C)cc(C(F)F)n3n2)c1 -4.45%
COc1cccc(N2CCN(C(=O)c3nc(-c4ccc(Cl)cc4)n4c3CCCCC4)CC2)c1 -6.19%
COCCn1c(SCC(=O)c2c[nH]c3ccccc23)nc2cc(C(=O)NCC(C)C)ccc2c1=O -15.3%
O=c1oc2ccc3ccccc3c2cc1-c1nnc(Nc2cc(C(F)(F)F)ccc2Cl)s1 0.937%
O=S(=O)(c1cccc(Cl)c1)c1nnn2c1nc(NC1CCCC1)c1sccc12 -9.93%
CCc1nnc2n1N(C(C)=O)C(c1ccc(C(C)(C)C)cc1)=C(C(C)=O)S2 -7.95%
CCc1ccc(CNC(=O)c2cc3c(s2)-c2ccccc2OC3)cc1 -2.71%
COc1cc(NC(=O)CSc2nc3nc(C)c(Cc4ccccc4)c(C)n3n2)cc(OC)c1OC 2.59%
COC(=O)c1ccc(NC(=O)C2CCN(S(=O)(=O)c3ccc4c(c3)CCCN4C(C)=O)CC2)cc1 -8.81%
COc1ccc(CC(=O)Nc2sc3c(c2C(=O)Nc2ccc(C)cc2)CCCCC3)cc1 7.91%
CCc1cccc(C)c1Nc1c(-c2cccc(O)c2)nc2sccn12 9.39%
Cc1nn(-c2ccc(F)cc2)c(-n2cccc2)c1C(=O)N1CCN(c2ccccc2F)CC1 -1.16%
COc1ccccc1CNC(=O)CN(c1ccc(C)cc1)S(=O)(=O)c1c(C)noc1C -0.88%
Cc1c(C(=O)Nc2ccc(F)c(F)c2)oc2ccc(S(=O)(=O)N3CCC4(CC3)OCCO4)cc12 7.64%
O=C(Nc1c(-c2ccc(F)cc2)nc2ccccn12)c1cccc(F)c1 0%
CC(=O)Nc1ccc(NS(=O)(=O)c2ccc(Cl)s2)cc1 -6.75%
CCCCc1ccc(NS(=O)(=O)c2ccc(N3CCCCS3(=O)=O)cc2)cc1 14.3%
CCOc1ccc(C(=O)c2cn(Cc3ccccc3)c3c(F)cc(F)cc3c2=O)cc1 1.84%
COc1ccc(OC)c(NC(=O)c2cnc(N3CCCC3)nc2C)c1 0%
O=C(CN1C(=O)CCc2cc(S(=O)(=O)N3CCOCC3)ccc21)NCc1ccccc1Cl 0%
CCCOc1ccc(NC(=O)CC2C(=O)N(c3ccc(C)cc3)C(=O)N2C2CCCC2)cc1 (centres undefined) -5.89%
CCSc1nnc2c(n1)OC(c1sccc1C)N(C(C)=O)c1ccccc1-2 (centres undefined) -5.32%
O=C(CSc1nc2c([nH]c3ccccc32)c(=O)n1-c1ccc(F)cc1)NCc1ccco1 -12.7%
CC1=C(C(=O)Nc2cc(Cl)ccc2C)C(c2ccco2)n2ncnc2N1 (centres undefined) 2.41%
O=C(NCc1cccc(F)c1)c1ccc2nc(N3CCCCC3)sc2c1 -5.77%
CCOC(=O)C1CCCN(S(=O)(=O)c2cc3c(cc2C)NC(=O)CO3)C1 (centres undefined) 4.67%
Cc1ccc(OCC(=O)Nc2ccc3nc(SCC(N)=O)sc3c2)cc1 0.857%
COc1ccc(Cn2c(=O)c3oc4ccccc4c3n(Cc3cccc(F)c3)c2=O)cc1 -7.78%
Cc1c(C)n(C)c2ccc(C(=O)NCCc3ccc(Cl)cc3)cc12 -3.6%
COC(=O)c1c(C)oc2ccc(N(C(=O)Oc3ccccc3)S(=O)(=O)c3ccc(C(C)(C)C)cc3)cc12 4.77%
O=C(NCCc1ccc(Cl)cc1)c1ccc2c(c1)N(Cc1c(F)cccc1Cl)C(=O)CS2 0%
Cc1ccc(NC(=O)C2CCCN(S(=O)(=O)c3c(C)n[nH]c3C)C2)cc1Cl (centres undefined) -21.5%
CCOC(=O)c1c(NC(=O)C(C)Sc2cn(CCNC(=O)c3ccccc3OC)c3ccccc23)sc2c1CCC2 (centres undefined) -13.1%
COC(=O)c1sc2cccc(F)c2c1S(=O)(=O)NCc1ccc(Cl)cc1 -17.5%
Cc1ccc(-n2nc3ccc(NC(=O)Cc4ccc(Cl)cc4)cc3n2)cc1 0.0278%
CCOC(=O)COc1ccc(CC)cc1C(=O)c1ccn2nc(-c3ccc(Cl)cc3)cc2n1 4.87%
COc1ccc(-c2noc(N3CCN(c4ccc(C)cc4)C(C)C3)n2)cc1OC (centres undefined) 4.13%
COc1cccc(CNC(=O)CSC2=Nc3ccccc3C3=NC(C)C(=O)N23)c1OC (centres undefined) 0%
Cc1ccc(CSc2ncc(Cl)c(C(=O)Oc3ccc(F)cc3)n2)cc1 3.32%
CCOc1ccc(NC(=O)Cn2c(=O)n(CCCC(=O)NCc3ccc4c(c3)OCO4)c(=O)c3ccccc32)cc1 6.39%
Fc1ccc(-c2cc(C(F)(F)F)nc(NCc3ccccc3)n2)cc1 0%
O=C(c1ccc2c(c1)N(Cc1ccc(F)cc1)C(=O)c1ccccc1S2(=O)=O)N1CCN(c2ccccn2)CC1 0.117%
COc1ccccc1CNC(=O)c1cnc2c(-c3ccccc3)c(C)nn2c1C 0.318%
CCn1c(=O)n(-c2cccc(Cl)c2)c(=O)c2sc3ccccc3c21 -16.1%
CCc1nn(CC(=O)N2CCN(c3ccc(Cl)cc3)CC2)c(=O)c2cc3occc3n12 -1.64%
O=C(Nc1ccc(Cl)cc1)c1cc2nc(-c3ccc4c(c3)OCO4)cc(C(F)(F)F)n2n1 7.74%
CC(=O)c1ccc(N2CCN(C(=O)c3cc4ccc5cccnc5c4[nH]3)CC2)cc1 -3.61%
COc1ccc(C(=O)Nc2ccccc2-c2nc(-c3ccc(OC)cc3)no2)cc1 1.83%
O=C(c1cnc(N2CCCCC2)c2ccccc12)N1CCN(c2ccc(Cl)cc2)CC1 -11.3%
COc1ccc(CCN2CC(C(=O)NCCc3ccccc3)CC2=O)cc1OC (centres undefined) 4.61%
COc1ccc(OC)c(/C=C(\C#N)c2nc3ccccc3c(=O)[nH]2)c1 -3.1%
O=C(CCC(=O)c1ccccc1)Nc1ccc(F)c(Cl)c1 0.57%
O=S(=O)(NCCS(=O)(=O)N1CCN(c2ccccc2)CC1)c1ccc(Cl)cc1 -2.9%
Cc1cccc(NC(=O)C2CCCN(S(=O)(=O)c3ccc4c(c3)oc(=O)n4C)C2)c1 (centres undefined) -0.226%
Cc1sc2c(c1C)c(=O)n(CCc1ccccc1)c(=O)n2Cc1ccc(F)cc1 -7.23%
Cc1ccc(C)c(S(=O)(=O)NCCc2csc(-c3ccc(Cl)cc3)n2)c1 -0.0292%
CCOC(=O)c1ccc2c(c1)[C@@H]1C=CC[C@@H]1[C@H](c1cccc(OC)c1OC)N2 3.84%
Cc1cc(C)c2sc(N(Cc3cccnc3)C(=O)CCOc3ccccc3)nc2c1 -9.69%
CCCC(=O)C1=C(c2cccc(OC)c2)N(C(=O)CCC)n2c(C)nnc2S1 -3.47%
Cn1ccc2c(OCC(=O)Nc3ccc([N+](=O)[O-])cc3)cccc2c1=O -12.2%
CSc1ccc(CNC(=O)CN2C(=O)C3CCCCN3c3ccc(C(=O)N4CCCC4)cc32)cc1 (centres undefined) 1.27%
CCOC(=O)C1CCN(C(=O)c2ccc3c(c2)sc2nc(-c4ccc(C)cc4)cn23)CC1 -20.5%
O=S(=O)(NCc1nc2cccnc2n1Cc1ccc(F)cc1)c1ccc(Cl)s1 -3.49%
COc1ccc(-c2nc3cc(C(C)C)ccc3o2)cc1NC(=O)c1ccc(C)c(Cl)c1 5.4%
COc1ccc(NC(=O)c2cc(S(=O)(=O)NCCC3=CCCCC3)ccc2F)cc1 -16.9%
COC(=O)c1cc2sc(C)cc2n1CC(=O)Nc1cccc(SC)c1 -1.01%
Cc1cccc(OCC(=O)Nc2ccc3oc(-c4ccccc4F)nc3c2)c1 -2.62%
FC(F)(F)c1ccc(-c2noc(-c3ccccc3Br)n2)cc1 1.31%
CCc1ccc(NC(=O)C2CCN(S(=O)(=O)c3c(C)noc3/C=C/c3ccco3)CC2)cc1 -15.9%
CCCCCC(=O)N(c1ccc(OCC)cc1)S(=O)(=O)c1ccc2c(c1)n(C)c(=O)n2C -9.71%
Cc1ccc(CCNC(=O)c2ccc(CS(=O)(=O)Cc3cccc(C)c3)o2)cc1 6.7%
COc1ccc(Cn2ccc3nc(C)c(C(=O)N4CCN(c5ccccc5F)CC4)cc3c2=O)cc1 -23.8%
Cc1ccc(NC(=O)Cn2cc3c(n2)CCC(C)C3)cc1C (centres undefined) 0.341%
CCn1ccc2cc(S(=O)(=O)N3CCCN(C(=O)NCC(=O)OC)CC3)ccc21 -8.03%
Cc1ccccc1C(=O)NC1(C(F)(F)F)N=C(c2ccccc2)N(Cc2ccccc2)C1=O (centres undefined) -1.6%
COc1cccc(-c2cc(C(F)(F)F)n3nc(C)c(-c4ccccc4)c3n2)c1 0.0919%
CCc1ccccc1N(C)C(=O)c1nn(C)c2c1CSc1ccccc1-2 -7.65%
O=C(COc1ccccc1[N+](=O)[O-])Nc1cc(-c2nc3cc(Cl)ccc3o2)ccc1Cl -0.128%
COC(=O)c1ccc(Oc2nc3c(c(=O)n(C)c(=O)n3C)n2C(C)C)cc1 4.14%
CCCCNC(=O)CSc1nc2cc3c(cc2c(=O)n1CCCCCC(=O)NCCc1ccc(OC)c(OC)c1)OCO3 -7.55%
Cc1ccc2nc(N3CCC(C(=O)NCc4ccc(F)cc4)CC3)[nH]c2c1 7.8%
